In paper PMC12820563, “FoxP3 forms a head-to-head dimer in vivo and stabilizes its multimerization on adjacent microsatellites”:
Some of the results follow.

These sequences were tested against T1, MBP-FoxP1dN (Mus musculus, UniProt P58462 326-579) (assay: PD-seq (MBP pull-down with sequencing); 20 mM Tris-HCl pH 7.5, 100 mM NaCl, 1.5 mM MgCl2, 0.4 uM protein, 0.1 uM dsDNA library, 30 min, room temperature, amylose pull-down; high values mean tight binding). Details: protein: recombinant; tags: His6-MBP; chain copies: 2; dsDNA, one strand shown.
T1 sequence: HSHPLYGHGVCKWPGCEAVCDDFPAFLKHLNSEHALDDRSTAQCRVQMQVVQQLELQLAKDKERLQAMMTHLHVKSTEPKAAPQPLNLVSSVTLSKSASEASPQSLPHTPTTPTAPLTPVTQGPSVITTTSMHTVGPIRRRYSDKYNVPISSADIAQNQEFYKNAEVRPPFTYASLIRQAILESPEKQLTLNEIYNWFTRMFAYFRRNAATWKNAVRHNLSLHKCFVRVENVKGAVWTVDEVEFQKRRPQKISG
In short: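 In Tris pH 7.5 buffer with NaCl and MgCl2, 0.4 µM His6-MBP-tagged mouse FoxP3 or FoxP1 fragment lacking the N-terminus, from E. coli, met 0.1 µM Klenow-filled double-stranded degenerate DNA library for 30 min at room temperature. Three washes on amylose resin followed capture of the complexes, then proteinase K release of DNA, PCR barcoding and Illumina sequencing. Binding is taken as pooled-replicate reads-per-million enrichment of pull-down relative to input.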

Sequence	binding signal
GATGATTGTTCTCCCAGCTGATGAATTCGAGTCGTCGAGTAAACAAATTTTCCTAATCTTTCTGTTCAAGCGCCATCTAC	0.767 RPM ratio (pull-down/input)
GATGATTGTTCTCCCAGCTGATGAATTTGCGTCCTCGAGTAAACAAATTTTCCTAATCTTTCTGTTCAAGCGCCATCTAC	1.07 RPM ratio (pull-down/input)
GATGATTGTTCTCCCAGCTGATGAATTAATACGCTCGAGTAAACAAATTTTCCTAATCTTTCTGTTCAAGCGCCATCTAC	1.05 RPM ratio (pull-down/input)
GATGATTGTTCTCCCAGCTGATGAATTTAACTCTTCGAGTAAACAAATTTTCCTAATCTTTCTGTTCAAGCGCCATCTAC	0.805 RPM ratio (pull-down/input)
GATGATTGTTCTCCCAGCTGATGAATTGGGCATTTCGAGTAAACAAATTTTCCTAATCTTTCTGTTCAAGCGCCATCTAC	1 RPM ratio (pull-down/input)
GATGATTGTTCTCCCAGCTGATGAATTTATGGCCTCGAGTAAACAAATTTTCCTAATCTTTCTGTTCAAGCGCCATCTAC	0.966 RPM ratio (pull-down/input)
GATGATTGTTCTCCCAGCTGATGAATTCTCCGACTCGAGTAAACAAATTTTCCTAATCTTTCTGTTCAAGCGCCATCTAC	0.775 RPM ratio (pull-down/input)
GATGATTGTTCTCCCAGCTGATGAATTCTGACCGTCGAGTAAACAAATTTTCCTAATCTTTCTGTTCAAGCGCCATCTAC	0.835 RPM ratio (pull-down/input)
GATGATTGTTCTCCCAGCTGATGAATTCACGGGCTCGAGTAAACAAATTTTCCTAATCTTTCTGTTCAAGCGCCATCTAC	0.759 RPM ratio (pull-down/input)
GATGATTGTTCTCCCAGCTGATGAATTCAATACGTCGAGTAAACAAATTTTCCTAATCTTTCTGTTCAAGCGCCATCTAC	1.03 RPM ratio (pull-down/input)
GATGATTGTTCTCCCAGCTGATGAATTGATCCGTTCGAGTAAACAAATTTTCCTAATCTTTCTGTTCAAGCGCCATCTAC	0.928 RPM ratio (pull-down/input)
GATGATTGTTCTCCCAGCTGATGAATTTCCGTTGTCGAGTAAACAAATTTTCCTAATCTTTCTGTTCAAGCGCCATCTAC	1.06 RPM ratio (pull-down/input)
GATGATTGTTCTCCCAGCTGATGAATTGACCCTTTCGAGTAAACAAATTTTCCTAATCTTTCTGTTCAAGCGCCATCTAC	0.95 RPM ratio (pull-down/input)
GATGATTGTTCTCCCAGCTGATGAATTAATCCGTTCGAGTAAACAAATTTTCCTAATCTTTCTGTTCAAGCGCCATCTAC	0.923 RPM ratio (pull-down/input)
GATGATTGTTCTCCCAGCTGATGAATTCAAATGATCGAGTAAACAAATTTTCCTAATCTTTCTGTTCAAGCGCCATCTAC	0.933 RPM ratio (pull-down/input)
GATGATTGTTCTCCCAGCTGATGAATTGGCACCCTCGAGTAAACAAATTTTCCTAATCTTTCTGTTCAAGCGCCATCTAC	0.828 RPM ratio (pull-down/input)
GATGATTGTTCTCCCAGCTGATGAATTACTGGTGTCGAGTAAACAAATTTTCCTAATCTTTCTGTTCAAGCGCCATCTAC	1.01 RPM ratio (pull-down/input)
GATGATTGTTCTCCCAGCTGATGAATTCAAGTCCTCGAGTAAACAAATTTTCCTAATCTTTCTGTTCAAGCGCCATCTAC	0.759 RPM ratio (pull-down/input)
GATGATTGTTCTCCCAGCTGATGAATTGGTCGCATCGAGTAAACAAATTTTCCTAATCTTTCTGTTCAAGCGCCATCTAC	1.16 RPM ratio (pull-down/input)
GATGATTGTTCTCCCAGCTGATGAATTTTATTATTCGAGTAAACAAATTTTCCTAATCTTTCTGTTCAAGCGCCATCTAC	1.7 RPM ratio (pull-down/input)
GATGATTGTTCTCCCAGCTGATGAATTTCCATACTCGAGTAAACAAATTTTCCTAATCTTTCTGTTCAAGCGCCATCTAC	0.947 RPM ratio (pull-down/input)

Sequence	binding signal
GATGATTGTTCTCCCAGCTGATGAATTACTTGCATCGAGTAAACAAATTTTCCTAATCTTTCTGTTCAAGCGCCATCTAC	1.48 RPM ratio (pull-down/input)
GATGATTGTTCTCCCAGCTGATGAATTCACTGCGTCGAGTAAACAAATTTTCCTAATCTTTCTGTTCAAGCGCCATCTAC	0.983 RPM ratio (pull-down/input)
GATGATTGTTCTCCCAGCTGATGAATTGATGACGTCGAGTAAACAAATTTTCCTAATCTTTCTGTTCAAGCGCCATCTAC	1.06 RPM ratio (pull-down/input)
GATGATTGTTCTCCCAGCTGATGAATTACCTTAATCGAGTAAACAAATTTTCCTAATCTTTCTGTTCAAGCGCCATCTAC	1.11 RPM ratio (pull-down/input)
GATGATTGTTCTCCCAGCTGATGAATTGGACATCTCGAGTAAACAAATTTTCCTAATCTTTCTGTTCAAGCGCCATCTAC	0.801 RPM ratio (pull-down/input)
GATGATTGTTCTCCCAGCTGATGAATTAGGGATCTCGAGTAAACAAATTTTCCTAATCTTTCTGTTCAAGCGCCATCTAC	0.826 RPM ratio (pull-down/input)
GATGATTGTTCTCCCAGCTGATGAATTGAATGGGTCGAGTAAACAAATTTTCCTAATCTTTCTGTTCAAGCGCCATCTAC	0.775 RPM ratio (pull-down/input)
GATGATTGTTCTCCCAGCTGATGAATTTCGGACATCGAGTAAACAAATTTTCCTAATCTTTCTGTTCAAGCGCCATCTAC	0.958 RPM ratio (pull-down/input)
GATGATTGTTCTCCCAGCTGATGAATTACGCCGGTCGAGTAAACAAATTTTCCTAATCTTTCTGTTCAAGCGCCATCTAC	0.902 RPM ratio (pull-down/input)
GATGATTGTTCTCCCAGCTGATGAATTGCATAATTCGAGTAAACAAATTTTCCTAATCTTTCTGTTCAAGCGCCATCTAC	1.36 RPM ratio (pull-down/input)
GATGATTGTTCTCCCAGCTGATGAATTTGCTCGGTCGAGTAAACAAATTTTCCTAATCTTTCTGTTCAAGCGCCATCTAC	0.87 RPM ratio (pull-down/input)
GATGATTGTTCTCCCAGCTGATGAATTCTGCAATTCGAGTAAACAAATTTTCCTAATCTTTCTGTTCAAGCGCCATCTAC	0.958 RPM ratio (pull-down/input)
GATGATTGTTCTCCCAGCTGATGAATTCCCAATATCGAGTAAACAAATTTTCCTAATCTTTCTGTTCAAGCGCCATCTAC	1.11 RPM ratio (pull-down/input)
GATGATTGTTCTCCCAGCTGATGAATTCTCATAGTCGAGTAAACAAATTTTCCTAATCTTTCTGTTCAAGCGCCATCTAC	0.836 RPM ratio (pull-down/input)
GATGATTGTTCTCCCAGCTGATGAATTGCCCGCGTCGAGTAAACAAATTTTCCTAATCTTTCTGTTCAAGCGCCATCTAC	0.975 RPM ratio (pull-down/input)
GATGATTGTTCTCCCAGCTGATGAATTAATCGATTCGAGTAAACAAATTTTCCTAATCTTTCTGTTCAAGCGCCATCTAC	0.998 RPM ratio (pull-down/input)
GATGATTGTTCTCCCAGCTGATGAATTGCTCACTTCGAGTAAACAAATTTTCCTAATCTTTCTGTTCAAGCGCCATCTAC	1.02 RPM ratio (pull-down/input)
GATGATTGTTCTCCCAGCTGATGAATTCTCGCCGTCGAGTAAACAAATTTTCCTAATCTTTCTGTTCAAGCGCCATCTAC	0.856 RPM ratio (pull-down/input)
GATGATTGTTCTCCCAGCTGATGAATTTGCTCGTTCGAGTAAACAAATTTTCCTAATCTTTCTGTTCAAGCGCCATCTAC	0.936 RPM ratio (pull-down/input)
GATGATTGTTCTCCCAGCTGATGAATTGTATGGTTCGAGTAAACAAATTTTCCTAATCTTTCTGTTCAAGCGCCATCTAC	1.1 RPM ratio (pull-down/input)
GATGATTGTTCTCCCAGCTGATGAATTCAGTAGGTCGAGTAAACAAATTTTCCTAATCTTTCTGTTCAAGCGCCATCTAC	0.829 RPM ratio (pull-down/input)

Sequence	binding signal
GATGATTGTTCTCCCAGCTGATGAATTCTGGGCATCGAGTAAACAAATTTTCCTAATCTTTCTGTTCAAGCGCCATCTAC	0.86 RPM ratio (pull-down/input)
GATGATTGTTCTCCCAGCTGATGAATTTTCAACATCGAGTAAACAAATTTTCCTAATCTTTCTGTTCAAGCGCCATCTAC	1.14 RPM ratio (pull-down/input)
GATGATTGTTCTCCCAGCTGATGAATTCACCCACTCGAGTAAACAAATTTTCCTAATCTTTCTGTTCAAGCGCCATCTAC	0.938 RPM ratio (pull-down/input)
GATGATTGTTCTCCCAGCTGATGAATTATTGGTTTCGAGTAAACAAATTTTCCTAATCTTTCTGTTCAAGCGCCATCTAC	1.39 RPM ratio (pull-down/input)
GATGATTGTTCTCCCAGCTGATGAATTATCTCCTTCGAGTAAACAAATTTTCCTAATCTTTCTGTTCAAGCGCCATCTAC	0.922 RPM ratio (pull-down/input)
GATGATTGTTCTCCCAGCTGATGAATTATAACGATCGAGTAAACAAATTTTCCTAATCTTTCTGTTCAAGCGCCATCTAC	1.01 RPM ratio (pull-down/input)
GATGATTGTTCTCCCAGCTGATGAATTCCTACTTTCGAGTAAACAAATTTTCCTAATCTTTCTGTTCAAGCGCCATCTAC	0.928 RPM ratio (pull-down/input)
GATGATTGTTCTCCCAGCTGATGAATTTAAGTCGTCGAGTAAACAAATTTTCCTAATCTTTCTGTTCAAGCGCCATCTAC	0.863 RPM ratio (pull-down/input)
GATGATTGTTCTCCCAGCTGATGAATTTGGGATCTCGAGTAAACAAATTTTCCTAATCTTTCTGTTCAAGCGCCATCTAC	0.788 RPM ratio (pull-down/input)
GATGATTGTTCTCCCAGCTGATGAATTACGTGACTCGAGTAAACAAATTTTCCTAATCTTTCTGTTCAAGCGCCATCTAC	1.01 RPM ratio (pull-down/input)
GATGATTGTTCTCCCAGCTGATGAATTGCCCATCTCGAGTAAACAAATTTTCCTAATCTTTCTGTTCAAGCGCCATCTAC	0.881 RPM ratio (pull-down/input)
GATGATTGTTCTCCCAGCTGATGAATTGGGGCAGTCGAGTAAACAAATTTTCCTAATCTTTCTGTTCAAGCGCCATCTAC	0.806 RPM ratio (pull-down/input)
GATGATTGTTCTCCCAGCTGATGAATTAATGTGTTCGAGTAAACAAATTTTCCTAATCTTTCTGTTCAAGCGCCATCTAC	1.45 RPM ratio (pull-down/input)
GATGATTGTTCTCCCAGCTGATGAATTACGACCGTCGAGTAAACAAATTTTCCTAATCTTTCTGTTCAAGCGCCATCTAC	0.887 RPM ratio (pull-down/input)
GATGATTGTTCTCCCAGCTGATGAATTGTGGTTGTCGAGTAAACAAATTTTCCTAATCTTTCTGTTCAAGCGCCATCTAC	1.4 RPM ratio (pull-down/input)
GATGATTGTTCTCCCAGCTGATGAATTAGTGGAATCGAGTAAACAAATTTTCCTAATCTTTCTGTTCAAGCGCCATCTAC	0.962 RPM ratio (pull-down/input)
GATGATTGTTCTCCCAGCTGATGAATTAAAGGTTTCGAGTAAACAAATTTTCCTAATCTTTCTGTTCAAGCGCCATCTAC	0.867 RPM ratio (pull-down/input)
GATGATTGTTCTCCCAGCTGATGAATTAAACTTTTCGAGTAAACAAATTTTCCTAATCTTTCTGTTCAAGCGCCATCTAC	1.02 RPM ratio (pull-down/input)
GATGATTGTTCTCCCAGCTGATGAATTCACATAATCGAGTAAACAAATTTTCCTAATCTTTCTGTTCAAGCGCCATCTAC	1.18 RPM ratio (pull-down/input)
GATGATTGTTCTCCCAGCTGATGAATTCTTCTCATCGAGTAAACAAATTTTCCTAATCTTTCTGTTCAAGCGCCATCTAC	0.939 RPM ratio (pull-down/input)
GATGATTGTTCTCCCAGCTGATGAATTGCGGAGGTCGAGTAAACAAATTTTCCTAATCTTTCTGTTCAAGCGCCATCTAC	0.93 RPM ratio (pull-down/input)
